Measured values as given in the supplement of paper PMC6135742.
Where “and” joins values, the source holds several entries; their conditions need not be identical. Identical values can stand only once. Counter-ions that a name gives are not always drawn. Whole data set: some 2,600 compounds, median “total cell number (DAPI+ nuclei) relative to DMSO vehicle control” near -1.4, cut for the lowest 2% near -23. This is one part of the list.

These compounds were tested on jimpy (Plp1 jimpy) mouse iPSC-derived oligodendrocyte progenitor cells (assay: total cell number (DAPI+ nuclei) relative to DMSO vehicle control (SDs above negative control mean); higher = more surviving cells). Conditions: 10 µM; 3 days.

SMILES	total cell number
CO/N=C(\C(=O)N[C@@H]1C(=O)N2C(C(=O)O)=C(Cn3ccc(=N)n3CCO)CS[C@H]12)c1csc(N)n1 [Cefoselis Sulfate]	0.253
CC1Cc2ccccc2N1NC(=O)c1ccc(Cl)c(S(N)(=O)=O)c1 (stereo unspecified) [Indapamide]	1.96
CCOCC(O)COc1ccc(NC(=O)CC[S+](C)C)cc1 (stereo unspecified) [Suplatast Tosylate]	-1.08
Nc1ccc(S(=O)(=O)Nc2ccnn2-c2ccccc2)cc1 [Sulfaphenazole]	-2.31
CN1CCN(CCOc2cc(OC3CCOCC3)c3c(Nc4c(Cl)ccc5c4OCO5)ncnc3c2)CC1 [Saracatinib (AZD0530)]	-22.8
O=C(/C=C/c1ccc(CN(CCO)CCc2c[nH]c3ccccc23)cc1)NO [LAQ824 (Dacinostat)]	-17.2
CC(C)(C)c1ccc(-c2nc3ccccc3[nH]2)cc1	3.6
C=CCN1CCc2c(cc(O)c(O)c2Br)[C@@H](c2ccccc2)C1 [R(+)-6-Bromo-APB hydrobromide]	-7.92
Cc1cccc(C#Cc2ccccc2)n1 [6-Methyl-2-(phenylethynyl)pyridine hydrochloride]	-2.25
c1ccc(C(NCc2cccnc2)(c2ccccc2)c2ccccc2)cc1	-1.31
N[C@H](C(=O)O)c1cc(O)cc(O)c1 [(S)-3,5-Dihydroxyphenylglycine]	2.98
O=c1cc[nH]c(=S)[nH]1 [2-Thiouracil]	-0.0444
Cc1cc(C)c(/C=C2\C(=O)Nc3ccccc32)[nH]1 [Semaxanib (SU5416)]	-1.49
Cc1cc(C)c(/C=C2\C(=O)Nc3ccccc32)[nH]1	-3.96
O=C(NOC[C@H](O)CO)c1ccc(F)c(F)c1Nc1ccc(I)cc1F	-6.84 and -15.1
CC(C)c1cc(-c2ccc(F)c3ccccc23)nc(N)n1	0.518
O=C1CC2(CCCC2)CC(=O)N1CCCCN1CCN(c2ncccn2)CC1 [Buspirone hydrochloride]	-1.83
O=C1CC2(CCCC2)CC(=O)N1CCCCN1CCN(c2ncccn2)CC1 [Buspirone HCl]	-0.992
CC[C@H]1OC(=O)[C@H](C)[C@@H](O[C@H]2C[C@@](C)(OC)[C@@H](O)[C@H](C)O2)[C@H](C)[C@@H](O[C@@H]2O[C@H](C)C[C@H](N(C)C)[C@H]2O)[C@](C)(O)C[C@@H](C)[C@@H]2N[C@@H](COCCOC)O[C@H]([C@H]2C)[C@]1(C)O [Dirithromycin]	-1.67
COc1ccc(S(=O)(=O)N(C(C)=O)c2ccccc2/C=C/c2cc[n+]([O-])cc2)cc1	-4.22
CCn1ccnc1CC1COc2ccccc2O1 (stereo unspecified) [Imiloxan hydrochloride]	-1.4
